Article PMC5155157, “K63-polyubiquitinated HAUSP deubiquitinates HIF-1α and dictates H3K56 acetylation promoting hypoxia-induced tumour progression” (Nature Communications, 2016)

Target: T1, His-HIF1α1–400 (UniProt Q16665, in part)
T1 construct: HIF-1α, a.a; 1–400; also called N-terminal (a.a. 1–400) domain of HIF-1α
Experiment: pull-down; His-HIF1α protein incubated with GST-HAUSP protein and Glutathione-Agarose; pulled down His-HIF1α detected by Western blot
Conditions: both partners purified

binding result: binds
B1: GST-HAUSP[…] (domain or fragment)
chain: MNHQQQQQQQKAGEQQLSEPEDMEMEAGDTDDPPRITQNPVINGNVALSDGHNTAEEDMED[about 150 residues not shown]
notes: HAUSP (USP7), a.a; source: purified GST protein
